{"sequences": {"note": "Chains of the proteins cited; added tags and fusions are not shown. Lines headed by an entry give the natural chain unless they say otherwise; changes in a name come on top. Residues count along the entry.", "UniProt Q96QP1": "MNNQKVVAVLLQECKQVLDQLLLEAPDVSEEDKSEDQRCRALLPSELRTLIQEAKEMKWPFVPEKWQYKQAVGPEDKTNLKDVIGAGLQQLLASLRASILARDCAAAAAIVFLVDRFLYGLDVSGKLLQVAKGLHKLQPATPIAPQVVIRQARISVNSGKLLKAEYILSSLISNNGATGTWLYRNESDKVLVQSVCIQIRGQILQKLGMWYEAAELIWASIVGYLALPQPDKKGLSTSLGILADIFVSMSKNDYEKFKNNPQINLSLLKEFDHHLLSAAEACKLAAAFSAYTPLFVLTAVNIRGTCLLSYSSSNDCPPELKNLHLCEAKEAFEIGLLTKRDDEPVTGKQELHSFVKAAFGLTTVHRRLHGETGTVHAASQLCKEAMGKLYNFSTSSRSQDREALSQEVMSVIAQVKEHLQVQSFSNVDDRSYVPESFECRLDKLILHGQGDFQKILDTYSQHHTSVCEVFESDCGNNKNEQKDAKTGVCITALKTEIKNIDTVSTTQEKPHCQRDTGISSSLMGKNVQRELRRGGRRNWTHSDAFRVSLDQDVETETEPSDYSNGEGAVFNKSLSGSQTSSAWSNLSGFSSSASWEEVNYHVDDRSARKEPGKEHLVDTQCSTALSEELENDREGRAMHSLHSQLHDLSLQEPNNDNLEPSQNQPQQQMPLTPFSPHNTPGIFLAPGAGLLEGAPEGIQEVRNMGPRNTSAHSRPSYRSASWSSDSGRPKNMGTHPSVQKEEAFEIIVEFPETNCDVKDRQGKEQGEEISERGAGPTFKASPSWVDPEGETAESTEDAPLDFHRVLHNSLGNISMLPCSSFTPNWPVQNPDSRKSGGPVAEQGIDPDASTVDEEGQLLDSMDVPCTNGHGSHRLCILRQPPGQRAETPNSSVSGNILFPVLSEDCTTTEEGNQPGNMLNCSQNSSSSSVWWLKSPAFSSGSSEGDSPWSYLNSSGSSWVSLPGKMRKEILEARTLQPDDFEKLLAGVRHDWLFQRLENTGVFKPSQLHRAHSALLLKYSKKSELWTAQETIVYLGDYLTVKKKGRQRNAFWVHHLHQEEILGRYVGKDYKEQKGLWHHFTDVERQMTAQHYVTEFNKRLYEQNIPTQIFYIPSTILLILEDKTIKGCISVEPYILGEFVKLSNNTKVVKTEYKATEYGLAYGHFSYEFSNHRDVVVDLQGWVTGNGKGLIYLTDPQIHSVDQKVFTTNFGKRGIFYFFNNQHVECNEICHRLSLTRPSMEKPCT", "Halo-ALPK1 N-terminal (Nt) recombinant protein": "residues 1-569 of Q96QP1", "HA-ALPK1 Nt1 (1-271 a.a.)": "residues 1-271 of Q96QP1", "HA-ALPK1 middle region (mid, 432-961 a.a.)": "residues 432-961 of Q96QP1", "UniProt P35579": "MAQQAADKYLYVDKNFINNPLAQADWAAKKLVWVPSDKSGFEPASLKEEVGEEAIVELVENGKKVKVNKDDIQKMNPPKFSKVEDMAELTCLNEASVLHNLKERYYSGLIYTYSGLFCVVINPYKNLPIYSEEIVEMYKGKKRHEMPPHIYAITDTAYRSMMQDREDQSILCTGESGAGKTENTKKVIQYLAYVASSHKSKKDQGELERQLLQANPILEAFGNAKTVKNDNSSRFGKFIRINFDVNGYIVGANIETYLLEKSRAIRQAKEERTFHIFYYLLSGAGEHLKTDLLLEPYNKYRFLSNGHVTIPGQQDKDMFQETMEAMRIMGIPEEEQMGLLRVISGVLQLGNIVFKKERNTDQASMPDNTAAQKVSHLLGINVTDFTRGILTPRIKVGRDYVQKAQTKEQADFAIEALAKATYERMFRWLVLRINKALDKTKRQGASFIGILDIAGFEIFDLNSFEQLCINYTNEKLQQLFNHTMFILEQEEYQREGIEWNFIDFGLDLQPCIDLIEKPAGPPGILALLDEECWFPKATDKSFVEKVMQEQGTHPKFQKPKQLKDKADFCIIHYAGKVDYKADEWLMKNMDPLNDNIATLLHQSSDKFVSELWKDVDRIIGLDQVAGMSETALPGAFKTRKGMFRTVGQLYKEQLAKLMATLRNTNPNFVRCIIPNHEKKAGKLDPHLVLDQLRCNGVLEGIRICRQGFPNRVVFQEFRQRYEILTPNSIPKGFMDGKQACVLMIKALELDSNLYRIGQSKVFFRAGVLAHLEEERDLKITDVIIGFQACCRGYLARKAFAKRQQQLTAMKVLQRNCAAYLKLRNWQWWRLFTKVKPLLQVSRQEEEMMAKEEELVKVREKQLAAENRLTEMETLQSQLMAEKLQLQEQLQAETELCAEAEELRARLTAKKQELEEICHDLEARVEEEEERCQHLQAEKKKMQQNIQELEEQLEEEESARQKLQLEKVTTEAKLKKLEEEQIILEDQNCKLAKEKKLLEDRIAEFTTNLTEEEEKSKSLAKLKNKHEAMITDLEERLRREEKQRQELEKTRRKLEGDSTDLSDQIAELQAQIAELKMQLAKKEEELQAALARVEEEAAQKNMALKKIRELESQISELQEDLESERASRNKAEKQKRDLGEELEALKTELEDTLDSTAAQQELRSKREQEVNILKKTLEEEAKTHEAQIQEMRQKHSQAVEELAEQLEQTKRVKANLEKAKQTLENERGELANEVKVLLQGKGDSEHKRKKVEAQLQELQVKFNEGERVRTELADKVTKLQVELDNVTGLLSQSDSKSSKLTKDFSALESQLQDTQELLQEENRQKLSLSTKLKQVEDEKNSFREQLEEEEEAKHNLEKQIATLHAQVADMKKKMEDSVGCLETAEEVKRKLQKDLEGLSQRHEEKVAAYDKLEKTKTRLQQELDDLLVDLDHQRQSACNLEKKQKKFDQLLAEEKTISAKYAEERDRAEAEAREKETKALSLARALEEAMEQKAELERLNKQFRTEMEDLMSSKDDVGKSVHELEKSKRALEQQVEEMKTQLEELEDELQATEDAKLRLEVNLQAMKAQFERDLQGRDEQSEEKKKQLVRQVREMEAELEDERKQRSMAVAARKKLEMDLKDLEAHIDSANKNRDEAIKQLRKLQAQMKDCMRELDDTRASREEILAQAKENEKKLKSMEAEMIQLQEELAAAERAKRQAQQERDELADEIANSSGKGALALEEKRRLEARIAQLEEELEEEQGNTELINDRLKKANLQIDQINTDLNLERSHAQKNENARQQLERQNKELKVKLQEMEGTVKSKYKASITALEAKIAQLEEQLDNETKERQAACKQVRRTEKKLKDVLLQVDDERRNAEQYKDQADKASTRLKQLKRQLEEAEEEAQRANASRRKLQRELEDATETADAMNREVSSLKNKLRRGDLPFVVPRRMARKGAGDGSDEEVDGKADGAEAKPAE"}, "source": "paper PMC4864424", "key": {"[1]": {"molecular_target": "HA-ALPK1 Nt1 (1-271 a.a.) (human) (UniProt Q96QP1)", "experiment": "co-IP; HEK293T cotransfected with HA-tagged ALPK1 forms and Flag-myosin IIA; precipitated with HA antibody (12CA5), Protein G beads; blots with anti-Flag, anti-F-actin, anti-calmodulin"}, "[2]": {"molecular_target": "HA-ALPK1 middle region (mid, 432-961 a.a.) (human) (UniProt Q96QP1)", "experiment": "co-IP; HEK293T cotransfected with HA-tagged ALPK1 forms and Flag-myosin IIA; precipitated with HA antibody (12CA5), Protein G beads; blots with anti-Flag, anti-F-actin, anti-calmodulin"}, "[3]": {"molecular_target": "HA-ALPK1 full-length (FL, 1-1244 a.a.) (human) (UniProt Q96QP1)", "experiment": "co-IP; HEK293T cotransfected with HA-tagged ALPK1 forms and Flag-myosin IIA; precipitated with HA antibody (12CA5), Protein G beads; blots with anti-Flag, anti-F-actin, anti-calmodulin"}, "[4]": {"molecular_target": "Flag-tagged myosin IIA (MYH9, 1-1960 a.a.) (UniProt P35579)", "experiment": "co-IP; HEK293T cotransfected with HA-tagged ALPK1 forms and Flag-myosin IIA; precipitated with Flag antibody (M2), Protein G beads; blots with anti-HA, anti-F-actin, anti-calmodulin"}, "[5]": {"molecular_target": "Halo-ALPK1 N-terminal (Nt) recombinant protein (human) (UniProt Q96QP1)", "experiment": "pull-down; Halo-ALPK1 FL and Nt on HaloLink resin with THP-1 cell lysates; bands on SDS-PAGE identified by LC/MS/MS and confirmed by Western blotting; only the target purified"}, "[6]": {"molecular_target": "Halo-ALPK1 full-length (FL) recombinant protein (human) (UniProt Q96QP1)", "experiment": "pull-down; Halo-ALPK1 FL and Nt on HaloLink resin with THP-1 cell lysates; bands on SDS-PAGE identified by LC/MS/MS and confirmed by Western blotting; only the target purified"}, "[7]": {"molecular_target": "Halo-ALPK1 full-length (FL) recombinant protein (human) (UniProt Q96QP1)", "experiment": "co-purification (Halo-tag purification); ALPK1 recombinant protein purified from HEK 293F cells by the Halo-tag system; endogenous myosin IIA co-eluted, seen as a weak band in the kinase assay gel"}}, "note": "These are yes or no findings as the source states them, for the method shown. For part of these data: In cells and extracts the contact can be indirect. Some entries that bind do so weakly or less than the wild type.", "data": [{"substance": "Flag-tagged myosin IIA (MYH9, 1-1960 a.a.) (from UniProt P35579 1-1960)", "values": [{"measurement": "binding", "setting": "[1]", "result": "binds"}, {"measurement": "binding", "setting": "[2]", "result": "no binding"}, {"measurement": "binding", "setting": "[3]", "result": "binds"}]}, {"substance": "HA-ALPK1 Nt1 (1-271 a.a.) (from UniProt Q96QP1-1 1-271) (domain or fragment)", "values": [{"measurement": "binding", "setting": "[4]", "result": "binds"}]}, {"substance": "HA-ALPK1 full-length (FL, 1-1244 a.a.) (from UniProt Q96QP1-1 1-1244) (enzyme)", "values": [{"measurement": "binding", "setting": "[4]", "result": "binds"}]}, {"substance": "HA-ALPK1 middle region (mid, 432-961 a.a.) (from UniProt Q96QP1-1 432-961) (domain or fragment)", "values": [{"measurement": "binding", "setting": "[4]", "result": "no binding"}]}, {"substance": "Myosin-9 (endogenous myosin IIA) (from UniProt P35579 1-1960)", "values": [{"measurement": "binding", "setting": "[5]", "result": "binds"}, {"measurement": "binding", "setting": "[6]", "result": "binds"}, {"measurement": "binding", "setting": "[7]", "result": "binds"}]}]}
